# Some of the results follow.
# B1: LgFlo1 (Saccharomyces pastorianus), B3IUA8 (protein)
# chain: SGSTQACLPVGSRKNGMNVNFYKYSLQDSTTYSDPQYMAYKYSDTKKLGSVSGQTHLSIYYGPNTAFWNTASWSSDLFGFYTTPTNVTVEMTGYFLPPQTGSYTFKFATVDDSAILSVGGSIAFECCAQEQPPITSTDFTINGIKPWDAATPTDIKGSTYMYAGYYYPIKIVYSNAKALARLPVSVVLPDGTEVNDDFEGYVYSFDDDLSQSNCTIPDPSKHTTS
# Columns and labels:
# Test in all cases: glycan array binding signal (z-score within array); higher = stronger binding
# Details in all cases: glycan notation: IUPAC condensed, linker removed
# Gal(a1-3)Gal(b1-4)GlcNAc = target: Gal(a1-3)Gal(b1-4)GlcNAc
# Method in brief: (§1)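 The binding signal is a Z-score computed within each array. Data were drawn from 3228 arrays in the Consortium for Functional Glycomics database, restricted to those with a known protein sequence. Scores were averaged over arrays of the same protein sequence at different concentrations or buffers, and over linkers, and negative values can be taken as non-binding.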
# [1] = target: Gal(a1-3)Gal(b1-4)GlcNAc(b1-2)Man
# Method in brief: as §1
# [2] = target: Gal(a1-3)Gal(b1-4)GlcNAc(b1-2)Man(a1-3)[Gal(a1-3)Gal(b1-4)GlcNAc(b1-2)Man(a1-6)]Man(b1-4)GlcNAc(b1-4)GlcNAc
# Method in brief: as §1
# [3] = target: Gal(a1-3)Gal(b1-4)GlcNAc(b1-3)GalNAc
# Method in brief: as §1
# [4] = target: Gal(a1-3)Gal(b1-4)GlcNAc(b1-6)GalNAc
# Method in brief: as §1
# [5] = target: Gal(a1-3)Gal(b1-4)[Fuc(a1-3)]GlcNAc
# Method in brief: as §1
# [6] = target: Gal(a1-3)Gal(b1-4)[Fuc(a1-3)]GlcNAc(b1-2)Man(a1-3)[Gal(a1-3)Gal(b1-4)[Fuc(a1-3)]GlcNAc(b1-2)Man(a1-6)]Man(b1-4)GlcNAc(b1-4)GlcNAc
# Method in brief: as §1
# Gal(a1-3)GalNAc = target: Gal(a1-3)GalNAc
# Method in brief: as §1
# [7] = target: Gal(a1-3)[Gal(a1-4)]Gal(b1-4)GlcNAc
# Method in brief: as §1
# [8] = target: Gal(a1-4)Gal(b1-3)GlcNAc(b1-2)Man(a1-3)[Gal(a1-4)Gal(b1-3)GlcNAc(b1-2)Man(a1-6)]Man(b1-4)GlcNAc(b1-4)GlcNAc
# Method in brief: as §1
# Gal(a1-4)Gal(b1-4)Glc = target: Gal(a1-4)Gal(b1-4)Glc
# Method in brief: as §1
# Gal(a1-4)Gal(b1-4)GlcNAc = target: Gal(a1-4)Gal(b1-4)GlcNAc
# Method in brief: as §1
# [9] = target: Gal(a1-4)Gal(b1-4)GlcNAc(b1-2)Man(a1-3)[Gal(a1-4)Gal(b1-4)GlcNAc(b1-2)Man(a1-6)]Man(b1-4)GlcNAc(b1-4)GlcNAc
# Method in brief: as §1
# [10] = target: Gal(a1-4)Gal(b1-4)GlcNAc(b1-3)Gal(b1-4)Glc
# Method in brief: as §1
# Gal(a1-4)GlcNAc = target: Gal(a1-4)GlcNAc
# Method in brief: as §1
# Gal(a1-6)Glc = target: Gal(a1-6)Glc
# Method in brief: as §1
# Gal(b1-2)Gal = target: Gal(b1-2)Gal
# Method in brief: as §1
# Gal(b1-3)Gal = target: Gal(b1-3)Gal
# Method in brief: as §1
# Gal(b1-3)Gal(b1-4)GlcNAc = target: Gal(b1-3)Gal(b1-4)GlcNAc
# Method in brief: as §1
# Gal(b1-3)GalNAc = target: Gal(b1-3)GalNAc
# Method in brief: as §1
# [11] = target: Gal(b1-3)GalNAc(a1-3)[Fuc(a1-2)]Gal(b1-4)Glc
# Method in brief: as §1
# [12] = target: Gal(b1-3)GalNAc(a1-3)[Fuc(a1-2)]Gal(b1-4)GlcNAc
# Method in brief: as §1
# Gal(b1-3)GalNAc(b1-3)Gal = target: Gal(b1-3)GalNAc(b1-3)Gal
# Method in brief: as §1
# [13] = target: Gal(b1-3)GalNAc(b1-3)Gal(a1-4)Gal(b1-4)Glc
# Method in brief: as §1
# [14] = target: Gal(b1-3)GalNAc(b1-4)Gal(b1-4)Glc
# Method in brief: as §1
# [15] = target: Gal(b1-3)GalNAc(b1-4)[Neu5Ac(a2-3)]Gal(b1-4)Glc
# Method in brief: as §1
# Gal(b1-3)GlcNAc = target: Gal(b1-3)GlcNAc
# Method in brief: as §1
# [16] = target: Gal(b1-3)GlcNAc(a1-3)Gal(b1-4)GlcNAc
# Method in brief: as §1
# [17] = target: Gal(b1-3)GlcNAc(a1-6)Gal(b1-4)GlcNAc
# Method in brief: as §1
# Gal(b1-3)GlcNAc(b1-2)Man = target: Gal(b1-3)GlcNAc(b1-2)Man
# Method in brief: as §1
# [18] = target: Gal(b1-3)GlcNAc(b1-2)Man(a1-3)[Gal(b1-3)GlcNAc(b1-2)Man(a1-6)]Man(b1-4)GlcNAc(b1-4)GlcNAc
# Method in brief: as §1
# [19] = target: Gal(b1-3)GlcNAc(b1-2)Man(a1-3)[Gal(b1-3)GlcNAc(b1-2)Man(a1-6)]Man(b1-4)GlcNAc(b1-4)[Fuc(a1-6)]GlcNAc
# Method in brief: as §1
# [20] = target: Gal(b1-3)GlcNAc(b1-2)Man(a1-3)[GlcNAc(b1-4)][Gal(b1-3)GlcNAc(b1-2)Man(a1-6)]Man(b1-4)GlcNAc(b1-4)GlcNAc
# Method in brief: as §1
# [21] = target: Gal(b1-3)GlcNAc(b1-2)[Gal(b1-3)GlcNAc(b1-6)]Man(a1-6)[Gal(b1-3)GlcNAc(b1-2)Man(a1-3)]Man(b1-4)GlcNAc(b1-4)GlcNAc
# Method in brief: as §1
# [22] = target: Gal(b1-3)GlcNAc(b1-3)Gal(b1-3)GlcNAc
# Method in brief: as §1
# [23] = target: Gal(b1-3)GlcNAc(b1-3)Gal(b1-4)Glc
# Method in brief: as §1
# [24] = target: Gal(b1-3)GlcNAc(b1-3)Gal(b1-4)GlcNAc
# Method in brief: as §1
# [25] = target: Gal(b1-3)GlcNAc(b1-3)Gal(b1-4)GlcNAc(b1-2)Man(a1-3)[Gal(b1-3)GlcNAc(b1-3)Gal(b1-4)GlcNAc(b1-2)Man(a1-6)]Man(b1-4)GlcNAc(b1-4)GlcNAc
# Method in brief: as §1
# [26] = target: Gal(b1-3)GlcNAc(b1-3)Gal(b1-4)GlcNAc(b1-2)[Gal(b1-3)GlcNAc(b1-3)Gal(b1-4)GlcNAc(b1-6)]Man(a1-6)[Gal(b1-3)GlcNAc(b1-3)Gal(b1-4)GlcNAc(b1-2)Man(a1-3)]Man(b1-4)GlcNAc(b1-4)[Fuc(a1-6)]GlcNAc
# Method in brief: as §1
# [27] = target: Gal(b1-3)GlcNAc(b1-3)Gal(b1-4)GlcNAc(b1-3)Gal(b1-4)GlcNAc(b1-2)[Gal(b1-3)GlcNAc(b1-3)Gal(b1-4)GlcNAc(b1-3)Gal(b1-4)GlcNAc(b1-6)]Man(a1-6)[Gal(b1-3)GlcNAc(b1-3)Gal(b1-4)GlcNAc(b1-3)Gal(b1-4)GlcNAc(b1-2)Man(a1-3)]Man(b1-4)GlcNAc(b1-4)[Fuc(a1-6)]GlcNAc
# Method in brief: as §1
# [28] = target: Gal(b1-3)GlcNAc(b1-3)Gal(b1-4)GlcNAc(b1-6)[Gal(b1-3)GlcNAc(b1-3)]Gal(b1-4)Glc
# Method in brief: as §1
# [29] = target: Gal(b1-3)GlcNAc(b1-3)Gal(b1-4)[Fuc(a1-3)]GlcNAc
# Method in brief: as §1
# [30] = target: Gal(b1-3)GlcNAc(b1-3)Gal(b1-4)[Fuc(a1-3)]GlcNAc(b1-6)[Gal(b1-3)GlcNAc(b1-3)]Gal(b1-4)Glc
# Method in brief: as §1
# [31] = target: Gal(b1-3)GlcNAc(b1-3)GalNAc
# Method in brief: as §1
# [32] = target: Gal(b1-3)GlcNAc(b1-6)Gal(b1-4)GlcNAc
# Method in brief: as §1
binder,measurement,setting,value
B1,glycan array binding signal (z-score),Gal(a1-3)Gal(b1-4)GlcNAc,-0.305
same,glycan array binding signal (z-score),[1],-0.278
same,glycan array binding signal (z-score),[2],0.385
same,glycan array binding signal (z-score),[3],-0.146
same,glycan array binding signal (z-score),[4],-0.328
same,glycan array binding signal (z-score),[5],-0.122
same,glycan array binding signal (z-score),[6],1.76
same,glycan array binding signal (z-score),Gal(a1-3)GalNAc,-0.152
same,glycan array binding signal (z-score),[7],-0.248
same,glycan array binding signal (z-score),[8],1.89
same,glycan array binding signal (z-score),Gal(a1-4)Gal(b1-4)Glc,-0.283
same,glycan array binding signal (z-score),Gal(a1-4)Gal(b1-4)GlcNAc,-0.329
same,glycan array binding signal (z-score),[9],1.67
same,glycan array binding signal (z-score),[10],-0.425
same,glycan array binding signal (z-score),Gal(a1-4)GlcNAc,-0.471
same,glycan array binding signal (z-score),Gal(a1-6)Glc,0.139
same,glycan array binding signal (z-score),Gal(b1-2)Gal,0.063
same,glycan array binding signal (z-score),Gal(b1-3)Gal,-0.354
same,glycan array binding signal (z-score),Gal(b1-3)Gal(b1-4)GlcNAc,0.361
same,glycan array binding signal (z-score),Gal(b1-3)GalNAc,-0.044
same,glycan array binding signal (z-score),[11],-0.439
same,glycan array binding signal (z-score),[12],-0.346
same,glycan array binding signal (z-score),Gal(b1-3)GalNAc(b1-3)Gal,-0.301
same,glycan array binding signal (z-score),[13],-0.431
same,glycan array binding signal (z-score),[14],-0.344
same,glycan array binding signal (z-score),[15],-0.314
same,glycan array binding signal (z-score),Gal(b1-3)GlcNAc,-0.216
same,glycan array binding signal (z-score),[16],-0.217
same,glycan array binding signal (z-score),[17],-0.315
same,glycan array binding signal (z-score),Gal(b1-3)GlcNAc(b1-2)Man,-0.234
same,glycan array binding signal (z-score),[18],0.172
same,glycan array binding signal (z-score),[19],0.025
same,glycan array binding signal (z-score),[20],0.784
same,glycan array binding signal (z-score),[21],1.78
same,glycan array binding signal (z-score),[22],-0.26
same,glycan array binding signal (z-score),[23],-0.37
same,glycan array binding signal (z-score),[24],-0.558
same,glycan array binding signal (z-score),[25],-0.078
same,glycan array binding signal (z-score),[26],-0.032
same,glycan array binding signal (z-score),[27],0.352
same,glycan array binding signal (z-score),[28],-0.229
same,glycan array binding signal (z-score),[29],-0.421
same,glycan array binding signal (z-score),[30],-0.258
same,glycan array binding signal (z-score),[31],-0.183
same,glycan array binding signal (z-score),[32],-0.462

# From the supplement of paper PMC8728848
